Measured values reported in US20150104450A1 (AstraZeneca / MedImmune, published 2015).
Substitutions are numbered along the chain they refer to. Values belong to the binder of their own block, whether it stands above or below them.

Legend:
[1] = molecular target: T1, CD80 (B7-1) expressed on Raji cells (UniProt P33681 35-288); assay: cell-based or functional assay
T1 sequence (looked up): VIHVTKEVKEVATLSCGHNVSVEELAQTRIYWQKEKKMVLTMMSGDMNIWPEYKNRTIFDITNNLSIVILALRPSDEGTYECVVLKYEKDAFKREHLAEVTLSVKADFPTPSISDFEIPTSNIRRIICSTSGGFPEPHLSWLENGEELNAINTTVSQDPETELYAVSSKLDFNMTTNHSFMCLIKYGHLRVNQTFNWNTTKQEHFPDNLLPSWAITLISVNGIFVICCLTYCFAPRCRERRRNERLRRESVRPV

[2] = molecular target: T2, CD86 (B7-2) expressed on Raji cells (UniProt P42081 24-329); assay: cell-based or functional assay
T2 sequence (looked up): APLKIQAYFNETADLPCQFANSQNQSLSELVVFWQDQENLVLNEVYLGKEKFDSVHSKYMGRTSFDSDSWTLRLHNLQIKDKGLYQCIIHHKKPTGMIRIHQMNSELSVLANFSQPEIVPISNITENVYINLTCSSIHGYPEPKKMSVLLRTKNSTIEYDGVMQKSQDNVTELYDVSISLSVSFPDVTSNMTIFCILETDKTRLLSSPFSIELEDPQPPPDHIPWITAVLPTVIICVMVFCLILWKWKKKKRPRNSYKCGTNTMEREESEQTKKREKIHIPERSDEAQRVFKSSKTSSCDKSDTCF

[3] = molecular target: T3, human CD80 extracellular domain with FLAG 10xhis tag (human); assay: SPR, as described in the filing
T3 construct: The printed range 1-242 counts on the Swiss-Prot entry and includes the leader; Tag placed C-terminal by inference; also called human CD80 ligand
T3 chain: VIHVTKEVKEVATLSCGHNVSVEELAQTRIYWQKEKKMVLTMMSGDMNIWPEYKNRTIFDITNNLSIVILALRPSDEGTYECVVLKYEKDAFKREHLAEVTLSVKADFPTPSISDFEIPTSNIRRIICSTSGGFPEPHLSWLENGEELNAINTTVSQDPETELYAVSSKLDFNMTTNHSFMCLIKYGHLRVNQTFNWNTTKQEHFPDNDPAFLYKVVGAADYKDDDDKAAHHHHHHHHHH

[4] = molecular target: T3, human CD80 extracellular domain with …; assay: SPR (Biacore 2000), ratio of KD
[5] = molecular target: T4, cynomolgus monkey CD80 extracellular domain with FLAG 10xhis tag (cynomolgus monkey); assay: SPR (Biacore 2000), ratio of KD
T4 construct: Printed range includes the leader; Tag placed C-terminal by inference; also called Cyno; CD80
T4 chain: T3 chain with T101M, S114T, T120P, N152S, A165T, T200P

[6] = molecular target: T5, mouse CD80 extracellular domain with FLAG 10xhis tag (mouse); assay: SPR (Biacore 2000), ratio of KD
T5 construct: Printed range includes the leader; Tag placed C-terminal by inference
T5 chain: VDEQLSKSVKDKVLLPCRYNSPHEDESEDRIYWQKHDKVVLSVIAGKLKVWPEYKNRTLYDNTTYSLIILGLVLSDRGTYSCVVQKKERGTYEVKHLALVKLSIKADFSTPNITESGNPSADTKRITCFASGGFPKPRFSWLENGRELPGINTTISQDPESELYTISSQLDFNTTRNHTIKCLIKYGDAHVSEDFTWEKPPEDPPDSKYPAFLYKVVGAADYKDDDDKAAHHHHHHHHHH

[7] = molecular target: T6, mouse CD86 extracellular domain with FLAG 10xhis tag (mouse); assay: SPR (Biacore 2000), ratio of KD
T6 construct: Printed range includes the leader; Tag placed C-terminal by inference
T6 chain: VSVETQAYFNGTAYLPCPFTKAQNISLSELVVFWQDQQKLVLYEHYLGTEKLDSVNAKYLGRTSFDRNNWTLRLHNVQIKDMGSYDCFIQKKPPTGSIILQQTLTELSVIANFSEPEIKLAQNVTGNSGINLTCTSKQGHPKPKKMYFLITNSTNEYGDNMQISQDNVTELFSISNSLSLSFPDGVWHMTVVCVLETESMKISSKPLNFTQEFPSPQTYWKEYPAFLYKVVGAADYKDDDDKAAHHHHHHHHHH

[8] = molecular target: T3, human CD80 extracellular domain with …; assay: SPR (Biacore 2000), CTLA-4-Fc amine-coupled to CM5, ligand ECD as analyte, monovalent affinity
[9] = molecular target: T4, cynomolgus monkey CD80 extracellular …; assay: as above
[10] = molecular target: T5, mouse CD80 extracellular domain with …; assay: as above
[11] = molecular target: T6, mouse CD86 extracellular domain with …; assay: as above

B1: wild type CTLA-4 (SEQ ID NO: 35) in Fc fusion format (Fc fusion)
chain: not shown
notes: also called CTLA-4 wild type Fc fusion protein
Fold Improvement over Wild Type (SEQ ID NO: 35), Raji/Jurkat IC50 [1]: 1 fold
Fold Improvement over Wild Type (SEQ ID NO: 35), Raji/Jurkat IC50 [2]: 1 fold
fold greater affinity for binding CD80 than for binding CD86 [3]: ~4 fold
fold-improvement in affinity over wild type CTLA-4 in Fc fusion format [4]: 1 fold
fold-improvement in affinity over wild type CTLA-4 in Fc fusion format [5]: 1 fold
fold-improvement in affinity over wild type CTLA-4 in Fc fusion format [6]: 1 fold
fold-improvement in affinity over wild type CTLA-4 in Fc fusion format [7]: 1 fold
Kd [8]: 1540 nM
Kd [9]: 1550 nM
Kd [10]: 2950 nM
Kd [11]: 5550 nM

B3: CTLA-4 Variant 1227 in Fc fusion format (Fc fusion)
chain: MHVAQPAVVLASSRGSASFVCEYANPSKATEVRVTVLRQADSQVTEVCAATYMMGNEATFLDDSICTGTASGNQVNLTIQGLRAQDTGLYICHVELMYPPPYYLGIGNGTQIYVIDPEPCPDSDV[letters of human IgG1 Fc omitted]
Fold Improvement over Wild Type (SEQ ID NO: 35), Raji/Jurkat IC50 [1]: 19 fold
Raji/Jurkat Dual Cell Assay IC50 (IL-2 release) [1]: 1.6 nM
Fold Improvement over Wild Type (SEQ ID NO: 35), Raji/Jurkat IC50 [2]: 19 fold
Raji/Jurkat Dual Cell Assay IC50 (IL-2 release) [2]: 1.6 nM
fold-improvement in affinity over wild type CTLA-4 in Fc fusion format [4]: 140 fold
fold-improvement in affinity over wild type CTLA-4 in Fc fusion format [5]: 172 fold
Kd [8]: 11 nM
Kd [9]: 9 nM

B5: CTLA-4 Variant 1299 in Fc fusion format (Fc fusion)
chain: B3 chain with S16R, A24T, H93Q
notes: deposit NCIMB 41948
Fold Improvement over Wild Type (SEQ ID NO: 35), Raji/Jurkat IC50 [1]: 56 fold
Raji/Jurkat Dual Cell Assay IC50 (IL-2 release) [1]: 0.53 nM
Fold Improvement over Wild Type (SEQ ID NO: 35), Raji/Jurkat IC50 [2]: 56 fold
Raji/Jurkat Dual Cell Assay IC50 (IL-2 release) [2]: 0.53 nM
fold-improvement in affinity over wild type CTLA-4 in Fc fusion format [4]: 128 fold
fold-improvement in affinity over wild type CTLA-4 in Fc fusion format [5]: 155 fold
Kd [8]: 12 nM
Kd [9]: 10 nM

B6: CTLA-4 Variant 1114 in Fc fusion format (Fc fusion)
chain: B3 chain with S16R, S27G, A58G, A70T, Q85K, H93Q
Fold Improvement over Wild Type (SEQ ID NO: 35), Raji/Jurkat IC50 [1]: 21 fold
Raji/Jurkat Dual Cell Assay IC50 (IL-2 release) [1]: 1.4 nM
Fold Improvement over Wild Type (SEQ ID NO: 35), Raji/Jurkat IC50 [2]: 21 fold
Raji/Jurkat Dual Cell Assay IC50 (IL-2 release) [2]: 1.4 nM
fold-improvement in affinity over wild type CTLA-4 in Fc fusion format [4]: 37 fold
fold-improvement in affinity over wild type CTLA-4 in Fc fusion format [5]: 40 fold
fold-improvement in affinity over wild type CTLA-4 in Fc fusion format [6]: 1 fold
fold-improvement in affinity over wild type CTLA-4 in Fc fusion format [7]: 1 fold
Kd [8]: 42 nM
Kd [9]: 39 nM
Kd [10]: 2170 nM
Kd [11]: 4860 nM

B7: CTLA-4 Variant 1115 in Fc fusion format (Fc fusion)
chain: B3 chain with S16V, S27G, A58G, H93Q
Fold Improvement over Wild Type (SEQ ID NO: 35), Raji/Jurkat IC50 [1]: 67 fold
Raji/Jurkat Dual Cell Assay IC50 (IL-2 release) [1]: 0.44 nM
Fold Improvement over Wild Type (SEQ ID NO: 35), Raji/Jurkat IC50 [2]: 67 fold
Raji/Jurkat Dual Cell Assay IC50 (IL-2 release) [2]: 0.44 nM
fold-improvement in affinity over wild type CTLA-4 in Fc fusion format [4]: 77 fold
fold-improvement in affinity over wild type CTLA-4 in Fc fusion format [5]: 86 fold
Kd [8]: 20 nM
Kd [9]: 18 nM

The remaining lines, values ahead:

Fold Improvement over Wild Type (SEQ ID NO: 35), Raji/Jurkat IC50 [1]: 91 fold
Raji/Jurkat Dual Cell Assay IC50 (IL-2 release) [1]: 0.33 nM
Fold Improvement over Wild Type (SEQ ID NO: 35), Raji/Jurkat IC50 [2]: 91 fold
Raji/Jurkat Dual Cell Assay IC50 (IL-2 release) [2]: 0.33 nM
fold-improvement in affinity over wild type CTLA-4 in Fc fusion format [4]: 193 fold
fold-improvement in affinity over wild type CTLA-4 in Fc fusion format [5]: 258 fold
Kd [8]: 8 nM
Kd [9]: 6 nM
B2: CTLA-4 Variant 1322 in Fc fusion format (Fc fusion)
chain: MHVAQPAVVLASSRGIASFVCEYANPSKATEVRVTVLRQADSQVTEVCAATYMKGSELSTQDYPNCTGTSSGNQVNLTIQGLRAMDTGLYICQVELMYPPPYYLGIGNGTQIYVIDPEPCPDSDV[letters of human IgG1 Fc omitted]

Fold Improvement over Wild Type (SEQ ID NO: 35), Raji/Jurkat IC50 [1]: 68 fold
Raji/Jurkat Dual Cell Assay IC50 (IL-2 release) [1]: 0.44 nM
Fold Improvement over Wild Type (SEQ ID NO: 35), Raji/Jurkat IC50 [2]: 68 fold
Raji/Jurkat Dual Cell Assay IC50 (IL-2 release) [2]: 0.44 nM
fold-improvement in affinity over wild type CTLA-4 in Fc fusion format [4]: 67 fold
fold-improvement in affinity over wild type CTLA-4 in Fc fusion format [5]: 82 fold
Kd [8]: 23 nM
Kd [9]: 19 nM
B4: CTLA-4 Variant 1321 in Fc fusion format (Fc fusion)
chain: B3 chain with S27G, M54K, A58G, Q80R, Q85S, H93Q

Fold Improvement over Wild Type (SEQ ID NO: 35), Raji/Jurkat IC50 [1]: 123 fold
Raji/Jurkat Dual Cell Assay IC50 (IL-2 release) [1]: 0.24 nM
Fold Improvement over Wild Type (SEQ ID NO: 35), Raji/Jurkat IC50 [2]: 123 fold
Raji/Jurkat Dual Cell Assay IC50 (IL-2 release) [2]: 0.24 nM
fold-improvement in affinity over wild type CTLA-4 in Fc fusion format [4]: 77 fold
fold-improvement in affinity over wild type CTLA-4 in Fc fusion format [5]: 91 fold
Kd [8]: 20 nM
Kd [9]: 17 nM
B8: CTLA-4 Variant 1315 in Fc fusion format (Fc fusion)
chain: B3 chain with S27G, A58G, Q80R, Q85S, H93Q
